Measurements reported in the supplement of paper PMC11417369.
Some of the results follow.

Each sequence was assayed on PfSIP2 AP2 domain 1 (GST-tagged) (assay: gcPBM binding intensity (ln(normalized median fluorescence intensity)); higher = stronger DNA binding).
Summary of the method: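 For binding intensity, the highest Masliner-normalised natural-log median intensity across replicate spots of either probe orientation was taken. Protein bound to the array was stained with Alexa488 anti-GST antibody and scanned at 488 nm. The protein, GST-tagged P. falciparum DNA-binding domains from E. coli at about 25 μg on average, had been applied for 1 h to an Agilent 4 × 180k array of primer-extended double-stranded 36-bp intergenic genomic probes and negative controls.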

Row | Sequence | gcPBM binding intensity (ln)
1 | TTTTATAATCATAATAGTACTTTTTCTTTTTCACAT [XGTACX_site5017] | 6.7
2 | TCCTATATCACAAATGTGCACAGAAAAAAAAAATAT | 9.85
3 | ATATATATATACATACGTACACACAAATATTAAAAT [XGTACX_site4007] | 8.63
4 | AATATATATAATAATTGTACAATACGTATGTTATAT [XGTACX_site8745] | 7.14
5 | TGTATACATAATATTTGTACATATTGTTATATATAT [XGTACX_site740] | 7.6
6 | TTATAAAAAAAAAAAAAAAAGAAAATGAATTCACGA [CACACA_negctrl_site1248] | 6.74
7 | ATTTTATTTTTTGAGTGTACTAGTTCAACAACTCCG [XGTACX_site8600] | 7.19
8 | TTCGACGAGAGCAAGTGTACTCTTGAATAATTTATA [XGTACX_site7613] | 6.8
9 | TGTTATATATTATATACATGCACAAAAGCAACACAA [TGCATGCA_site1009] | 7.75
10 | TGAATTTCAAAACAGTGTACATTAATATATATATAA [XGTACX_site7951] | 6.87
11 | ATATTTATGACCGTACGTACCTAACAATACAATCAA [XGTACX_site4511] | 7.32
12 | ATAATATATATATGTAGTACGTATATAATTTTAATA [XGTACX_site5228] | 7.29
13 | AAAAATAAAAAAAACACACATACCTTATTTTTGTTC [CACACA_site2634] | 7.04
14 | AATTAAAATTTTTTTTTTTTTTTTTTTTTTCTATTA [CACACA_negctrl_site1585] | 6.59
15 | TATATATCCTTCTATGCATGCATATGGATAGATTTC [TGCATGCA_site58] | 6.78
16 | TATATATAGAAACACACACACAAAAAAAAAAAAAAA [CACACA_site1506] | 6.9
17 | ATTTAAAAAACTTTTAGCAAAAAAAAAAAATAATAA [TGCATGCA_negctrl_site191] | 6.69
18 | AAATTGATATTATATATATATATATATATATATATA [GTGCAC_negctrl_site482] | 9.42
19 | TTGTTTTGCTAAAAATGTACTCTATATAAAAGCTTT [XGTACX_site4027] | 6.84

Row | Sequence | gcPBM binding intensity (ln)
20 | TATATATATTATATATGTACACATATGTGAGAATGA [XGTACX_site2992] | 7.6
21 | TATCAAAATAAATGCACACAAATTGCACATATCTAT [CACACA_site1097] | 8.65
22 | ATTTATATGTAGATGTGTACTTAATTGTAATGTGTT [XGTACX_site6422] | 7.15
23 | CAAAAACATACCTACACACACAATATGTATAAATAA [CACACA_site7617] | 6.97
24 | AACTTTTTTATATGCACACATAAACAAGGATATATA [CACACA_site2874] | 7.52
25 | AAAAAAAAAAAAAACACACACACACCCATACACATA [CACACA_site2860] | 7.45
26 | TACTTCGATAATAATCGTACATATATATTGTATTTA [XGTACX_site5700] | 7.12
27 | CAAAAAATACGATGTTGTACTATGTATTCCTGATGT [XGTACX_site246] | 6.88
28 | TATATATACATAAAAACATGCAATATATACACATTA [TGCATGCA_site444] | 7.07
29 | TTTTTTTGCCATATTACACACACACCGGTAAACCCC [CACACA_site8475] | 7.51
30 | TATAAATAAATAAACACACACAAATAAAATAAAAAA [CACACA_site7623] | 7.05
31 | TTTATTTATTTATTCTTATTTTTTTTTTTTTTTACT [CACACA_negctrl_site257] | 6.8
32 | ACATATTAGGGTCATGAACACACAAAAAAAAAAAAA [CACACA_site8218] | 6.99
33 | AATTCAGCTTTACAACGTACACAATCATATGTCTAT [XGTACX_site8113] | 7.07
34 | TAATACATAAATGATTGTACATAAGAATTGAAACAT [XGTACX_site4583] | 7
35 | ATGAAGATTTAAAAATGTACATATGATCTATGTCCT [XGTACX_site8409] | 6.95
36 | TCTAGGAAAAATTATAGTACACAAAAATATATATAT [XGTACX_site4136] | 8.21
37 | TATGACACTTTGAAGGGTACATGCAGAAAAAAAAAA [XGTACX_site569] | 7.18
38 | TTATATGCACTTTTTGCACACGTATGAATAACAAAA [CACACA_site1811] | 9.55

Row | Sequence | gcPBM binding intensity (ln)
39 | TATATATATTAAAAACGTACAAAATAAGAATTAATT [XGTACX_site5979] | 7.24
40 | GGATATATTTTATGTACACACACATATAAGGGATTA [CACACA_site4181] | 7.1
41 | CATAAAAATGGATACACACACATAATATATATATAT [CACACA_site3619] | 9.01
42 | AAAAAAATTAATGTGTGTACTTAGATATAATGTTTA [XGTACX_site8862] | 6.99
43 | TAATTTTTTTTTTATTGTACTTAATATTTTTAATTT [XGTACX_site5929] | 6.94
44 | TTACAAATATTATAAAGTACAAACCAGTAGATTTTG [XGTACX_site2272] | 6.81
45 | TATTTTTTTTTTTTTTTTTTTACCTTTCCACTCAAA [CACACA_negctrl_site1454] | 6.76
46 | TTTTTTTTTTTTAAAAGTACATAGTAGTAATTATAG [XGTACX_site4232] | 7.21
47 | TCATTCTAAATATAAACACACATAAATATGTACATT [CACACA_site7555] | 7.09
48 | ATTTCATACAGACACACACACAAACAAACATATATA [CACACA_site979] | 7.43
49 | GTGAAGGTTTATATGTGTACATATATGTATTATATA [XGTACX_site326] | 7.22
50 | ATTATATATACATATACACACATACGTACATACATA [CACACA_site9194] | 7.36
51 | TTTTTTTTTTTTAATGCACACAGTGAACTTTTACTT [CACACA_site3567] | 7.18
52 | GACATTTCTTGGGATACATGCATGTCCCAGAACAAA [TGCATGCA_site271] | 6.93
53 | TTTAATAAATTGTGTACACAAAACATATAAATTTCG [CACACA_site5644] | 7.32
54 | ATTATCAAGACATTGCGTACTTAAAAAAAAAAAAAT [XGTACX_site6347] | 6.95
55 | TTATTATTCATATATTCACACATTAAAATTTTTCAA [CACACA_site4243] | 7
56 | CATATATAATAATATTGTACATATATAATAATAATA [XGTACX_site3338] | 6.93
